Our source for the inhibition values is PubChem BioAssay AID485344 (National Center for Advancing Translational Sciences (NCATS), 2010).

“And” between values parts separate entries of the source, which are not always exact repeats. Identical values can stand only once. The whole screen tested about 340,000 compounds, of which about 6,900 (2%) were called active. No stated cut-off is given here; in the data, active means inhibition above about 30%; inactive means below that, where a call was filed. The list shows a part of the results, in another mix than the full data. Where no call is shown, the source filed none.

This experiment has as its target D(2) dopamine receptor (Homo sapiens) (UniProt P14416). In words: HTS Assay for Allosteric Antagonists of the Human D2 Dopamine Receptor: Primary Screen for Antagonists. Further: 0% is about no effect. As to conditions: HEK293 TREx D2 cells, calcium flux, dopamine EC80; at 10 µM; stronger effect = higher value. The essentials: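 Calcium flux kinetic readout in an inducible HEK293 TREx D2 line plated overnight at 30 C. After 180 s compound exposure, an EC80 dopamine challenge follows with another 180 s kinetic read to detect antagonism.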
Sequence of UniProt P14416 (P14416 whole entry, looked up): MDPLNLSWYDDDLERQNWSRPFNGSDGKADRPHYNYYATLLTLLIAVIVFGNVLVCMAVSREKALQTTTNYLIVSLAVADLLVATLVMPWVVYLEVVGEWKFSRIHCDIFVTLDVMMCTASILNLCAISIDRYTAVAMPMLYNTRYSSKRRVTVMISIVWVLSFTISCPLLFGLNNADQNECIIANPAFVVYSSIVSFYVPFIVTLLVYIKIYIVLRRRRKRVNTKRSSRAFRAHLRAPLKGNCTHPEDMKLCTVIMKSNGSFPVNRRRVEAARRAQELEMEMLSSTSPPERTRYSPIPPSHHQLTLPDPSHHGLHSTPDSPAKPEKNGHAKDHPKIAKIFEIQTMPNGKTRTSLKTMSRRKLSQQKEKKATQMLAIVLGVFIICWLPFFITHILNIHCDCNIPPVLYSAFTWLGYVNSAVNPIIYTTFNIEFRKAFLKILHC
With `CCOC(=O)c1ccc(NC(=O)CN2C(=O)NC3(CCCCCCC3)C2=O)cc1`, the inhibition was active: 38.4%. For `CCOC(=O)c1cc2c(=O)n3ccccc3nc2n(Cc2ccco2)c1=NC(=O)c1ccccc1Br` the value was -1.54%. For `CCS(=O)(=O)N1CCc2cc(C(=O)Nc3ccc(Br)cc3F)ccc21` the value was -15.5%; for `O=C(COC(=O)c1cc([N+](=O)[O-])ccc1N1CCOCC1)Nc1ccc(Cl)cc1`, active: 41.8%; for `CC(=O)c1ccc(N2CCN(C(=O)c3cn(C)c(=O)c4c3c3ccccc3n4C)CC2)cc1`, -10.5%. Turning to `Cc1ccc(-n2c(=O)c3c(c4cc(C)ccc4n3C)n(CC(=O)Nc3ccc(F)cc3)c2=O)cc1`, the inhibition amounted to 3.12%. The same measure for `COc1ccc(CNC(=O)COCc2cc(-c3ccc4c(c3)OCO4)on2)cc1`: -0.158%; for `CCOC(=O)C1(Cc2cccc(OC)c2)CCN(Cc2cnc(SC)nc2)CC1`: active: 92.7%; for `CCc1cccc(C)c1NC(=O)c1ccc2c(c1)CCN2S(=O)(=O)c1ccc(Cl)cc1`: -4.55%. For `CCOc1ccc(C2C(C#N)=C(N)SC(N)=C2C#N)c(OCC)c1` the value was active: 30.6%; for `COc1ccc(N(Cc2cccs2)C(=O)c2ccco2)cc1`, 18.3%. For `CCCCC(=O)Nc1nnc(S(=O)(=O)N(C)Cc2ccc(Cl)cc2)s1` the value was -1.27%; for `OCC1(Cc2ccccc2)CCN(C2CCN(c3ccccc3F)CC2)CC1`, active: 47.2%. As to `Cc1cc(C)cc(NC(=O)CCc2c(C)nc3nc(CNC(=O)c4cccc(F)c4)nn3c2C)c1`, the inhibition is -16.7%.

With `COCCCNc1nc2c(c(=O)n(Cc3ccc(F)cc3)c(=O)n2C)n1C`, the inhibition is -7.37%.

As to `Cc1csc(SCC(=O)Nc2cccc3nsnc23)n1`, the inhibition is active: 32.7%. For `O=c1cc(COc2ccc(Cl)cc2Cl)nc2scc(-c3ccccc3)n12` the value was 12.4%. The same measure for `CC(CNC(=O)c1ccc2c(c1)nc1n2CCCCC1)c1ccccc1` (stereo not given): -2.3%; for `COc1ccccc1OCC(=O)N(Cc1ccco1)Cc1ccccc1F`: 11.4%; for `COc1ccc(-c2cc(C(=O)Nc3cc(Br)ccc3O)no2)cc1`: active: 35.6%. The same measure for `COc1ccccc1-c1nn2c(=O)cc(CN3CCN(C(=O)Nc4ccc(C)cc4Cl)CC3)nc2s1`: -17.2%; for `Cc1ccc(C2C(=O)N(C3CCC(C)CC3)CC(=O)N2C2CCCC2)cc1` (stereo not given): 12.5%. In the case of `Cc1cc(NS(=O)(=O)c2ccc(NC(=O)COc3c(C)ccc(C)c3C)cc2)nc(C)n1`, the inhibition was -10.6%. The same measure for `CCOc1ccc(-n2c(=O)c3c(C)c(C)sc3n(CC(=O)C(C)(C)C)c2=O)cc1`: -14.8%; for `O=C(CCC(=O)N1CCSc2ccccc21)Nc1ccc(Cl)cc1`: -17%; for `COc1cccc(CNC(=O)c2cc(-c3ccc(Cl)cc3)n[nH]2)c1`: 10.3%.

Take `CCOc1cccc(C(=O)N(Cc2ccc(C)o2)C2CCS(=O)(=O)C2)c1` (stereo not given): the inhibition is 16.7%. The same measure for `O=C(Cn1nc(-c2ccccc2)ccc1=O)NCCN1CCN(c2cccc(Cl)c2)CC1`: active: 63.6%. For `COc1ccc(CNC(=O)c2ccc3c(c2)N(Cc2cc(C)ccc2C)C(=O)CS3)cc1` the value was -2.4%. The same measure for `COc1ccc(CNc2nc(-c3ccc(Cl)cc3)nn2S(=O)(=O)c2ccc(C)cc2)cc1`: 0.0989%; for `COc1ccccc1CNS(=O)(=O)c1cc(Br)cc2c1N(C(=O)C1CC1)CC2`: 4.61%.

Turning to `CN(C)S(=O)(=O)N(CC(=O)Nc1ccc(C(F)(F)F)cc1)c1ccccc1`, the inhibition is 2.96%.

With `CCc1ccc(NC(=O)c2nc3nc(C)cc(C(F)F)n3n2)cc1`, the inhibition was -2.97%. For `Cc1nc(N2CCOCC2)c2c(C(=O)NCc3ccc(Cl)cc3)c(C)oc2n1` the value was -6.53%; for `CC1(C)C(C=C(Cl)Cl)C1C(=O)N1CCN(Cc2ccccc2)CC1` (stereo not given), active: 78%; for `Cc1ccc(S(=O)(=O)N2CC=C(c3c(C)n(CC(=O)N4CCCC4)c4ccccc34)CC2)cc1C`, -16.2%. As for `COc1cc(OC)cc(C(=O)NCCc2csc3nc(-c4ccccc4F)nn23)c1`, the inhibition is -2.68%. For `Cc1sc(-n2cccc2)c(C(C)NC(=O)Nc2cccc(C(F)(F)F)c2)c1C` (stereo not given) the value was 9.84%; for `CCOC(=O)c1c(C)oc2ccc(N(C(=O)c3ccncc3)S(=O)(=O)c3ccc(CC)cc3)cc12`, -9.82%. The same measure for `C=CCc1ccccc1OCC(O)CN1CCN(Cc2ccc3c(c2)OCO3)CC1` (stereo not given): active: 75% and active: 63.8%; for `O=C(CN1C(=O)COc2ccc(S(=O)(=O)NC3CCCC3)cc21)Nc1ccc(Cl)cc1F`: 0.382%; for `CCOC(=O)c1c(C)[nH]c(CCC(=O)Nc2cc(Cl)ccc2OC)c1C`: 6.63%. The same measure for `Cc1cc(C)c2sc(NC(=O)c3ccc(S(=O)(=O)N4CCCC4)cc3)nc2c1`: 6.03%; for `CCOc1ccc(NC(=O)C2(c3cccs3)CCOCC2)cc1`: -8.74%. Consider `CCOC(=O)c1cccc(NC(=O)CCc2nc3cccnc3n2-c2ccccc2)c1`, for which the inhibition was -14.2%. For `COc1ccccc1C(=O)Nc1nc2nc(C)cc(=O)n2[nH]1` the value was -14.9%; for `CCc1nnc(SCc2c(F)cccc2Cl)c2cc3sccc3n12`, -0.0418%; for `Cc1ccc(NC(=O)Cn2cc(C(=O)C3CC3)c3ccccc32)c(C)c1`, 16.9%. The same measure for `CSc1ccc(OC2CCN(Cc3ccccc3)CC2)cc1`: active: 30.6%; for `CC(C)CCNC(=O)c1ccc2c(c1)NC(=O)C(CS(=O)(=O)Cc1ccc(F)cc1)N2` (stereo not given): 8.14%. For `CC1=C(C(=O)N2CCN(c3cc(C)ccc3C)CC2)C2(CCC(C)CC2)OC1=O` (stereo not given) the value was 14.6%; for `COc1ccc(C(C(=O)NCc2ccccc2)N(C(=O)Cn2nnc3ccccc32)c2cccc(OC)c2)cc1` (stereo not given), -21.9%. For `O=C(COc1ccc(F)cc1)OCc1cc(=O)n2nc(C3CCCCC3)sc2n1`, the inhibition worked out at 11%. For `Cc1cc(-c2ccc(C)c(S(=O)(=O)NC(c3cccs3)C(C)C)c2)on1` (stereo not given) the value was -0.0835%; for `COc1ccc(NC(=O)CCSc2nc(-c3ccc(OC)cc3)cc(C(F)(F)F)n2)cc1`, -2.52%; for `O=C(NCCS(=O)(=O)N1CCN(c2ccccc2)CC1)C1CC(=O)N(c2ccc(F)cc2)C1` (stereo not given), 6.14% and active: 32.5%. For `COc1ccccc1N1CCN(/N=C/c2cccc(OC)c2O)CC1` the value was active: 58.9%. Turning to `CC1=C(C(=O)Nc2ccccc2C)C(c2ccncc2)n2nc(SCc3ccccc3Cl)nc2N1` (stereo not given), the inhibition is -21.2%.

Take `Cc1cccc(-c2noc(-c3ccccc3NC(=O)C3CC(=O)N(c4ccccc4C)C3)n2)c1` (stereo not given): the inhibition was 7.01%. The same measure for `Cc1cccc(NS(=O)(=O)c2ccccc2)n1`: active: 31.3%.
